# From article PMC8286836, “Identifying SARS-CoV-2 antiviral compounds by screening for small molecule inhibitors of Nsp5 main protease” (Biochemical Journal, 2021)
# System: nsp5 protease
# Details: for % Reduction at 0.8 µM / % Reduction at 4 µM: reduction in nsp5 activity (rate of reaction), primary HTS; for % Reduction at 0.8 µM: compound 0.8 µM; for % Reduction at 4 µM: compound 4 µM
Molecule,% Reduction at 0.8 µM [%],% Reduction at 4 µM [%],outcome in the primary screen (HTS buffer with reducing agent)
"C=CCn1c(=O)c2c(nc(-c3ccc(S(=O)(=O)O)cc3)n2C)n(C)c1=O [1-Allyl-3,7-dimethyl-8-p-sulfophenylxanthine]",0,37,–
"CC(C)=CCc1cc2c(cc1O)oc(=O)c1c3ccc(O)cc3oc21 [3,9-dihydroxy-2-(3-methyl-2-butenyl)-6H-[1]benzofuro[3,2-c]chromen-6-one]",0,79,–
COc1ccc(-c2ccc3cc(C(=O)O)ccc3c2)cc1C12CC3CC(CC(C3)C1)C2 [Adapalene],0,87,–
COc1cc2nc(N(C)CCCNC(=O)C3CCCO3)nc(N)c2cc1OC (stereo not shown) [Alfuzosin],0,44,–
O=C1O/C(=C/Br)CCC1c1cccc2ccccc12 (stereo not shown) [Bromoenol lactone],0,49,–
Cc1ccccc1N=Nc1ccc(NC(=O)c2ccnn2C)c(C)c1 [CH-223191],0,79,–
O=C(O)CCCCC(CCSCc1ccccc1)SCc1ccccc1 (stereo not shown) [CPI-613],0,54,–
"CCCC[C@@H](C=O)NC(=O)[C@H](CC(C)C)NC(=O)[C@H](CC(C)C)NC(C)=O [Calpain Inhibitor I, (2S)-2-(acetylamino)-N-[(1S)-1-({[(1S)-1-formylpentyl]amino}carbonyl)-3-methylbutyl]-4-methylpentanamide] (Ac-Leu-Leu-[Nle]-aldehyde)",0,58,–
C=C1C[C@@]2(O)O[C@@]3(C[C@H]2C(C)C)[C@@H](C)CC[C@@H]13 [Curcumol],0,31,–
COc1cc2nc(N3CCN(C(=O)C4COc5ccccc5O4)CC3)nc(N)c2cc1OC.CS(=O)(=O)O (stereo not shown) [Doxazosin (mesylate)],0,60,–
CC(C)(C#N)c1ccc(N2C(=O)OCc3cnc4ccc(-c5cnc6ccccc6c5)cc4c32)cc1 [ETP-46464],0,64,–
O=c1c2ccccc2[se]n1-c1ccccc1 [Ebselen],–,–,not identified as an hit
Br.CCCc1cc(-c2nc(-c3ccc(C)cc3)cs2)ccn1 [Fatostatin HBr],0,48,–
Cn1c2ccccc2c2c3c(c4c5ccccc5n(CCC#N)c4c21)CNC3=O [Go6976],0,67,–
CN1C2CCCC1CC(NC(=O)c1nn(C)c3ccccc13)C2 (stereo not shown) [Granisetron HCl],0,36,–
CC(C)[C@H](N=C(NS(=O)(=O)c1ccc(Cl)cc1)N1C[C@H](c2ccccc2)C(c2ccc(Cl)cc2)=N1)C(N)=O [JD-5037],0,74,–
CN1CCN(c2c(F)cc3c(=O)c(C(=O)O)cn4c3c2OCN4C)CC1 [Marbofloxacin],0,56,–
Cn1cc(-c2ccc3ncc(Cc4ccc5ncccc5c4)n3n2)cn1 [NVP-BVU972],0,59,–
COc1ccc(COc2cc3oc(=O)c4cc(C(C)O)ccc4c3cc2OC)cc1 (stereo not shown) [Palomid 529],0,43,–
COc1cc2nc(N3CCN(C(=O)c4ccco4)CC3)nc(N)c2cc1OC [Prazosin hydrochloride],0,80,–
Cc1ccc(S(=O)(=O)Cc2nc(-c3ccc(C(=O)NCc4cccnc4)cc3)oc2C)cc1 [STF-118804],0,55,–
"CCOc1ccc(Cc2cc([C@@H]3O[C@H](SC)[C@@H](O)[C@H](O)[C@H]3O)ccc2Cl)cc1 [Sotagliflozin (LX4211), Sotagliflozin]",0,47,–
COc1cc2c(cc1OC)CN(CCc1ccc(NC(=O)c3cc(OC)c(OC)cc3NC(=O)c3cnc4ccccc4c3)cc1)CC2 [Tariquidar],0,66,–
COc1cc2ncc(-c3ccccc3)nc2cc1OC [Tyrphostin AG 1296],0,45,–
COC(=O)CCC(NC(=O)C(CC(=O)OC)NC(=O)OCc1ccccc1)C(=O)NC(C(=O)NC(CC(=O)OC)C(=O)CF)C(C)C (stereo not shown) [Z-DEVD-FMK],53,100,–
CCC(C)C(NC(=O)OCc1ccccc1)C(=O)NC(CCC(=O)OC)C(=O)NC(C(=O)NC(CC(=O)OC)C(=O)CF)C(C)O (stereo not shown) [Z-IETD-FMK] (Cbz-IE(OMe)TD(OMe)-CH2F; configuration not given here),50,100,–
"COC(=O)CC(NC(=O)C(C)NC(=O)C(NC(=O)OCc1ccccc1)C(C)C)C(=O)CF (stereo not drawn) [Z-VAD-FMK, Z-VAD(OMe)-FMK] (Cbz-Val-Ala-Asp(OMe)-CH2F; configuration not given here)",43,100,–
PDK1/Akt/Flt Dual Pathway Inhibitor,0,64,–

# Counter-ions that a name gives are not always drawn. Where a SMILES comes first, the peptide text is derived from it. [ ]: non-standard residue; d: D form. The star is where a group is joined. Nle = CCCC[C@H](N)C(=O)O; Cbz = O=C(OCc1ccccc1)*; CH2F = FC*
